Test results taken from the supplement of paper PMC8728848.
This is one part of the list.

Key:
Experiment in all cases: glycan array binding signal (z-score within array); higher = stronger binding
Details in all cases: glycan notation: IUPAC condensed, linker removed
[1] = target: GlcNAc(b1-3)Gal(b1-4)GlcNAc(b1-2)[GlcNAc(b1-3)Gal(b1-4)GlcNAc(b1-6)]Man(a1-6)[GlcNAc(b1-3)Gal(b1-4)GlcNAc(b1-2)Man(a1-3)]Man(b1-4)GlcNAc(b1-4)GlcNAc
Procedure, shortened: (§1)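 Negative Z-scores can be read as non-binding. The Z-score is calculated within each array and then averaged across arrays of one protein sequence at different concentrations or buffers and across linkers. Arrays, 3228 in all, were curated from the Consortium for Functional Glycomics database and kept only where the protein sequence was available.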

[2] = target: GlcNAc(b1-3)Gal(b1-4)GlcNAc(b1-3)Gal(b1-4)GlcNAc
Procedure, shortened: as §1

[3] = target: GlcNAc(b1-3)Gal(b1-4)GlcNAc(b1-3)Gal(b1-4)GlcNAc(b1-2)Man(a1-3)[GlcNAc(b1-3)Gal(b1-4)GlcNAc(b1-3)Gal(b1-4)GlcNAc(b1-2)Man(a1-6)]Man(b1-4)GlcNAc(b1-4)GlcNAc
Procedure, shortened: as §1

[4] = target: GlcNAc(b1-3)Gal(b1-4)GlcNAc(b1-3)Gal(b1-4)GlcNAc(b1-2)Man(a1-3)[GlcNAc(b1-3)Gal(b1-4)GlcNAc(b1-3)Gal(b1-4)GlcNAc(b1-2)Man(a1-6)]Man(b1-4)GlcNAc(b1-4)[Fuc(a1-6)]GlcNAc
Procedure, shortened: as §1

[5] = target: GlcNAc(b1-3)Gal(b1-4)GlcNAc(b1-3)Gal(b1-4)GlcNAc(b1-2)[GlcNAc(b1-3)Gal(b1-4)GlcNAc(b1-3)Gal(b1-4)GlcNAc(b1-6)]Man(a1-6)[GlcNAc(b1-3)Gal(b1-4)GlcNAc(b1-3)Gal(b1-4)GlcNAc(b1-2)Man(a1-3)]Man(b1-4)GlcNAc(b1-4)[Fuc(a1-6)]GlcNAc
Procedure, shortened: as §1

[6] = target: GlcNAc(b1-3)Gal(b1-4)GlcNAc(b1-3)Gal(b1-4)GlcNAc(b1-3)Gal(b1-4)GlcNAc(b1-2)Man(a1-3)[GlcNAc(b1-3)Gal(b1-4)GlcNAc(b1-3)Gal(b1-4)GlcNAc(b1-3)Gal(b1-4)GlcNAc(b1-2)Man(a1-6)]Man(b1-4)GlcNAc(b1-4)GlcNAc
Procedure, shortened: as §1

[7] = target: GlcNAc(b1-3)Gal(b1-4)GlcNAc(b1-3)Gal(b1-4)GlcNAc(b1-3)Gal(b1-4)GlcNAc(b1-2)Man(a1-3)[GlcNAc(b1-3)Gal(b1-4)GlcNAc(b1-3)Gal(b1-4)GlcNAc(b1-3)Gal(b1-4)GlcNAc(b1-2)Man(a1-6)]Man(b1-4)GlcNAc(b1-4)[Fuc(a1-6)]GlcNAc
Procedure, shortened: as §1

[8] = target: GlcNAc(b1-3)Gal(b1-4)GlcNAc(b1-3)Gal(b1-4)GlcNAc(b1-3)Gal(b1-4)GlcNAc(b1-2)[GlcNAc(b1-3)Gal(b1-4)GlcNAc(b1-3)Gal(b1-4)GlcNAc(b1-3)Gal(b1-4)GlcNAc(b1-6)]Man(a1-6)[GlcNAc(b1-3)Gal(b1-4)GlcNAc(b1-3)Gal(b1-4)GlcNAc(b1-3)Gal(b1-4)GlcNAc(b1-2)Man(a1-3)]Man(b1-4)GlcNAc(b1-4)[Fuc(a1-6)]GlcNAc
Procedure, shortened: as §1

[9] = target: GlcNAc(b1-3)Gal(b1-4)GlcNAc(b1-3)Gal(b1-4)GlcNAc(b1-3)Gal(b1-4)GlcNAc(b1-3)Gal(b1-4)GlcNAc(b1-2)Man(a1-3)[GlcNAc(b1-3)Gal(b1-4)GlcNAc(b1-3)Gal(b1-4)GlcNAc(b1-3)Gal(b1-4)GlcNAc(b1-3)Gal(b1-4)GlcNAc(b1-2)Man(a1-6)]Man(b1-4)GlcNAc(b1-4)GlcNAc
Procedure, shortened: as §1

[10] = target: GlcNAc(b1-3)Gal(b1-4)GlcNAc(b1-3)Gal(b1-4)GlcNAc(b1-3)Gal(b1-4)GlcNAc(b1-3)Gal(b1-4)GlcNAc(b1-2)Man(a1-3)[GlcNAc(b1-3)Gal(b1-4)GlcNAc(b1-3)Gal(b1-4)GlcNAc(b1-3)Gal(b1-4)GlcNAc(b1-3)Gal(b1-4)GlcNAc(b1-2)Man(a1-6)]Man(b1-4)GlcNAc(b1-4)[Fuc(a1-6)]GlcNAc
Procedure, shortened: as §1

[11] = target: GlcNAc(b1-3)Gal(b1-4)GlcNAc(b1-3)Gal(b1-4)GlcNAc(b1-3)Gal(b1-4)GlcNAc(b1-3)Gal(b1-4)GlcNAc(b1-2)[GlcNAc(b1-3)Gal(b1-4)GlcNAc(b1-3)Gal(b1-4)GlcNAc(b1-3)Gal(b1-4)GlcNAc(b1-3)Gal(b1-4)GlcNAc(b1-6)]Man(a1-6)[GlcNAc(b1-3)Gal(b1-4)GlcNAc(b1-3)Gal(b1-4)GlcNAc(b1-3)Gal(b1-4)GlcNAc(b1-3)Gal(b1-4)GlcNAc(b1-2)Man(a1-3)]Man(b1-4)GlcNAc(b1-4)[Fuc(a1-6)]GlcNAc
Procedure, shortened: as §1

[12] = target: GlcNAc(b1-3)Gal(b1-4)GlcNAc(b1-3)Gal(b1-4)GlcNAc(b1-3)GalNAc
Procedure, shortened: as §1

[13] = target: GlcNAc(b1-3)Gal(b1-4)GlcNAc(b1-3)GalNAc
Procedure, shortened: as §1

[14] = target: GlcNAc(b1-3)Gal(b1-4)GlcNAc(b1-3)[GlcNAc(b1-3)Gal(b1-4)GlcNAc(b1-3)]GalNAc
Procedure, shortened: as §1

[15] = target: GlcNAc(b1-3)Gal(b1-4)GlcNAc(b1-6)[Gal(b1-3)]GalNAc
Procedure, shortened: as §1

[16] = target: GlcNAc(b1-3)Gal(b1-4)GlcNAc(b1-6)[GlcNAc(b1-3)Gal(b1-3)]GalNAc
Procedure, shortened: as §1

[17] = target: GlcNAc(b1-3)Gal(b1-4)GlcNAc(b1-6)[GlcNAc(b1-3)]Gal(b1-4)GlcNAc
Procedure, shortened: as §1

GlcNAc(b1-3)GalNAc = target: GlcNAc(b1-3)GalNAc
Procedure, shortened: as §1

GlcNAc(b1-3)Man = target: GlcNAc(b1-3)Man
Procedure, shortened: as §1

[18] = target: GlcNAc(b1-3)[GlcNAc(b1-4)][GlcNAc(b1-6)]GlcNAc
Procedure, shortened: as §1

[19] = target: GlcNAc(b1-3)[GlcNAc(b1-6)]Gal(b1-4)GlcNAc
Procedure, shortened: as §1

[20] = target: GlcNAc(b1-3)[GlcNAc(b1-6)]GalNAc
Procedure, shortened: as §1

[21] = target: GlcNAc(b1-3)[GlcNAc(b1-6)]GlcNAc
Procedure, shortened: as §1

[22] = target: GlcNAc(b1-4)Gal(b1-4)GlcNAc
Procedure, shortened: as §1

GlcNAc(b1-4)GlcNAc = target: GlcNAc(b1-4)GlcNAc
Procedure, shortened: as §1

[23] = target: GlcNAc(b1-4)GlcNAc(b1-4)GlcNAc
Procedure, shortened: as §1

[24] = target: GlcNAc(b1-4)GlcNAc(b1-4)GlcNAc(b1-4)GlcNAc(b1-4)GlcNAc
Procedure, shortened: as §1

[25] = target: GlcNAc(b1-4)GlcNAc(b1-4)GlcNAc(b1-4)GlcNAc(b1-4)GlcNAc(b1-4)GlcNAc
Procedure, shortened: as §1

[26] = target: GlcNAc(b1-4)[GlcNAc(b1-6)]GalNAc
Procedure, shortened: as §1

[27] = target: GlcNAc(b1-6)Gal(b1-4)GlcNAc
Procedure, shortened: as §1

GlcNAc(b1-6)GalNAc = target: GlcNAc(b1-6)GalNAc
Procedure, shortened: as §1

GlcNAc3Prop(b1-4)GlcNAc = target: GlcNAc3Prop(b1-4)GlcNAc
Procedure, shortened: as §1

[28] = target: GlcNAc6S(b1-3)Gal(b1-4)GlcNAc
Procedure, shortened: as §1

Kdn(a2-3)Gal(b1-3)GalNAc = target: Kdn(a2-3)Gal(b1-3)GalNAc
Procedure, shortened: as §1

Kdn(a2-3)Gal(b1-3)GlcNAc = target: Kdn(a2-3)Gal(b1-3)GlcNAc
Procedure, shortened: as §1

Kdn(a2-3)Gal(b1-4)Glc = target: Kdn(a2-3)Gal(b1-4)Glc
Procedure, shortened: as §1

Kdn(a2-3)Gal(b1-4)GlcNAc = target: Kdn(a2-3)Gal(b1-4)GlcNAc
Procedure, shortened: as §1

[29] = target: Kdn(a2-3)Gal(b1-4)[Fuc(a1-3)]GlcNAc
Procedure, shortened: as §1

Kdn(a2-6)Gal(b1-4)GlcNAc = target: Kdn(a2-6)Gal(b1-4)GlcNAc
Procedure, shortened: as §1

[30] = target: Man(a1-2)Man(a1-2)Man(a1-3)Man
Procedure, shortened: as §1

[31] = target: Man(a1-2)Man(a1-2)Man(a1-3)[Man(a1-2)Man(a1-3)[Man(a1-2)Man(a1-6)]Man(a1-6)]Man(b1-4)GlcNAc(b1-4)GlcNAc
Procedure, shortened: as §1

[32] = target: Man(a1-2)Man(a1-2)Man(a1-3)[Man(a1-2)Man(a1-6)[Man(a1-3)]Man(a1-6)]Man(b1-4)GlcNAc(b1-4)GlcNAc
Procedure, shortened: as §1

[33] = target: Man(a1-2)Man(a1-2)Man(a1-6)[Man(a1-3)]Man
Procedure, shortened: as §1

Man(a1-2)Man(a1-3)Man = target: Man(a1-2)Man(a1-3)Man
Procedure, shortened: as §1

[34] = target: Man(a1-2)Man(a1-3)[Man(a1-2)Man(a1-6)]Man
Procedure, shortened: as §1

B1: Gal 7 (Homo sapiens) (protein)
chain: MSNVPHKSSLPEGIRPGTVLRIRGLVPPNASRFHVNLLCGEEGGSDAALHFNPRLDTSEVVFNSKEGGSWGREERGPGVPFGRGQPFEVLIIASDDGFKAVVGDAQYHHFRHRLPLARVRLVEVGGDVQLDSVRIF
glycan array binding signal (z-score) [1]: 0.012 | glycan array binding signal (z-score) [2]: 0.373 | glycan array binding signal (z-score) [3]: 3.98 | glycan array binding signal (z-score) [4]: 1.88 | glycan array binding signal (z-score) [5]: 3.85 | glycan array binding signal (z-score) [6]: 4.92 | glycan array binding signal (z-score) [7]: 4.84 | glycan array binding signal (z-score) [8]: 5.04 | glycan array binding signal (z-score) [9]: 4.83 | glycan array binding signal (z-score) [10]: 4.94 | glycan array binding signal (z-score) [11]: 5.06 | glycan array binding signal (z-score) [12]: 0.55 | glycan array binding signal (z-score) [13]: -0.125 | glycan array binding signal (z-score) [14]: 0.244 | glycan array binding signal (z-score) [15]: -0.272 | glycan array binding signal (z-score) [16]: -0.267 | glycan array binding signal (z-score) [17]: -0.293 | glycan array binding signal (z-score) (GlcNAc(b1-3)GalNAc): -0.32 | glycan array binding signal (z-score) (GlcNAc(b1-3)Man): -0.235 | glycan array binding signal (z-score) [18]: -0.029 | glycan array binding signal (z-score) [19]: -0.333 | glycan array binding signal (z-score) [20]: -0.322 | glycan array binding signal (z-score) [21]: -0.33 | glycan array binding signal (z-score) [22]: -0.348 | glycan array binding signal (z-score) (GlcNAc(b1-4)GlcNAc): -0.278 | glycan array binding signal (z-score) [23]: -0.259 | glycan array binding signal (z-score) [24]: -0.31 | glycan array binding signal (z-score) [25]: -0.317 | glycan array binding signal (z-score) [26]: -0.355 | glycan array binding signal (z-score) [27]: -0.34 | glycan array binding signal (z-score) (GlcNAc(b1-6)GalNAc): -0.231 | glycan array binding signal (z-score) (GlcNAc3Prop(b1-4)GlcNAc): -0.394 | glycan array binding signal (z-score) [28]: -0.092 | glycan array binding signal (z-score) (Kdn(a2-3)Gal(b1-3)GalNAc): 0.117 | glycan array binding signal (z-score) (Kdn(a2-3)Gal(b1-3)GlcNAc): 0.491 | glycan array binding signal (z-score) (Kdn(a2-3)Gal(b1-4)Glc): -0.275 | glycan array binding signal (z-score) (Kdn(a2-3)Gal(b1-4)GlcNAc): -0.241 | glycan array binding signal (z-score) [29]: 0.11 | glycan array binding signal (z-score) (Kdn(a2-6)Gal(b1-4)GlcNAc): -0.258 | glycan array binding signal (z-score) [30]: -0.351 | glycan array binding signal (z-score) [31]: -0.353 | glycan array binding signal (z-score) [32]: -0.333 | glycan array binding signal (z-score) [33]: -0.328 | glycan array binding signal (z-score) (Man(a1-2)Man(a1-3)Man): -0.3 | glycan array binding signal (z-score) [34]: -0.331
